# Source: article PMC4336329 (PLoS ONE, 2015)
# Out of some 310,000 compounds screened, about 2,200 (0.71%) showed an effect of 50% or more. Effects have a minus sign here. The list shows a part of the results.
# Target: human ether-à-go-go-related gene (hERG) potassium channel (human, UniProt Q12809)
# Test: primary screen, population patch clamp on CHO cells stably expressing hERG
# human ether-à-go-go-related gene (hERG) potassium channel, sequence (Q12809 whole entry, looked up): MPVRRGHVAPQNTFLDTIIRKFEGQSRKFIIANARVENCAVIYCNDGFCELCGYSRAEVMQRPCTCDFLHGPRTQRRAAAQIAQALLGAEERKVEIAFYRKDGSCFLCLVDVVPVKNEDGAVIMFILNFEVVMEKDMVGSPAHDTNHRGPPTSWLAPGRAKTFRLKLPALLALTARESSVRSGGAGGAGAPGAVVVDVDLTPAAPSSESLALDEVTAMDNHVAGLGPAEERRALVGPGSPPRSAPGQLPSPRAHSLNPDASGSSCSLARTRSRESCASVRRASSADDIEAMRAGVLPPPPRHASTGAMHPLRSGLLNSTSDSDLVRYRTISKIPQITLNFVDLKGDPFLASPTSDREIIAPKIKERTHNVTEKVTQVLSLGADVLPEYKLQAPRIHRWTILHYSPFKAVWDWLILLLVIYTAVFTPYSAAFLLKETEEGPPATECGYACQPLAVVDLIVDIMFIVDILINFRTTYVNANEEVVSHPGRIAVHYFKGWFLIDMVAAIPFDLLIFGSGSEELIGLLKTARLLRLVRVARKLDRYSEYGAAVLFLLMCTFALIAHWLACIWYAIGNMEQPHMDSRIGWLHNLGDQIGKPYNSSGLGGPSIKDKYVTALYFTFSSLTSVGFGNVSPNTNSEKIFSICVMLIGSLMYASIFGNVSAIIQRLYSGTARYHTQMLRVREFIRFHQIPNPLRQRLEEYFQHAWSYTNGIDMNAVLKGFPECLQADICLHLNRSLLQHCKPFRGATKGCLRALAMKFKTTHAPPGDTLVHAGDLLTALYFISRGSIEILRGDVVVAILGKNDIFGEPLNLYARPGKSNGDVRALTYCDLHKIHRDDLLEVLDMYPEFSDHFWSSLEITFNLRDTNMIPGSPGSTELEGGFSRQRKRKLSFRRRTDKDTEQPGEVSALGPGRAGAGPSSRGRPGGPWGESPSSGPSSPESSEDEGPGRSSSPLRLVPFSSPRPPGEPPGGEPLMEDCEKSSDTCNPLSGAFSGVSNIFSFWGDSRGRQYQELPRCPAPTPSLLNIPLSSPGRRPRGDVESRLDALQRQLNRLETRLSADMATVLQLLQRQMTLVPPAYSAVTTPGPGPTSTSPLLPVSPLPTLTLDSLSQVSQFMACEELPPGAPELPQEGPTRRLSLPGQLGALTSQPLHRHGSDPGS
row,Compound,"hERG current change (%, negative = inhibition) at 1uM [%]"
1,O=C(NCCc1ccccc1)c1ccc(NCC2CCCO2)c([N+](=O)[O-])c1 (stereo not drawn),-19.9
2,NC(=O)Cn1cc(C(=O)c2ccccc2)c2ccccc21,12.8
3,Cc1ccc(/C=N/NC(=S)N2CCOCC2)cc1,14.4
4,Cc1cc(C(=O)N(C)CC(=O)Nc2cccc(F)c2)no1,23.3
5,CCC1CCCCN1C(=O)Cn1c(C(=O)OC)cc2ccsc21 (stereo not drawn),12.9
6,O=S(=O)(NCC(c1cccnc1)N1CCN(c2ccc(F)cc2)CC1)c1ccccc1 (stereo not drawn),-9
7,CCc1cc(=O)oc2c(C)c(OCC(=O)N3CCCc4ccccc43)ccc12,6.25
8,CC(C)CC(=O)n1sc(NC(=O)c2ccccc2)nc1=O,3.03
9,Cc1ccccc1Cn1cnc2c(cnn2C(C)(C)C)c1=O,6.11
10,COCCNC(=O)CN(C(=O)CCC(=O)Nc1ccccn1)c1ccc(C)c(C)c1,15.7
11,CCOC(=O)N1CCN(CC(O)c2c[nH]c3ccccc23)CC1 (stereo not drawn),16.2
12,CCS(=O)(=O)Nc1ccc(C2=NN(S(=O)(=O)CC)C(c3cccs3)C2)cc1 (stereo not drawn),7.91
13,COc1ccc(C(=O)C2CCCN(S(=O)(=O)c3ccc(C(C)=O)cc3)C2)c(C)c1 (stereo not drawn),11.2
14,O=C(NCCCN1CCOCC1)C1COc2ccccc2O1 (stereo not drawn),23.8
15,O=C(/C=C/c1ccc2c(c1)OCO2)NCc1ccncc1,10
16,CC(C)(C)C(=O)c1cnc(Nc2ccccc2)s1,3.13
17,COc1ccc(-c2nc(S(=O)(=O)c3ccc(C)cc3)c(N3CCCC3)o2)cc1,9.56
18,O=C(CSc1nnc2c(n1)[nH]c1ccc(S(=O)(=O)N3CCOCC3)cc12)Nc1ccc(F)c(F)c1,-1.02
19,C[C@]12CC[C@@H]3c4ccc(O)cc4C(=O)C[C@H]3[C@@H]1CC[C@@H]2O,-16.4
20,O=C(CCN1C(=O)[C@@H]2Cc3ccccc3CN2C1=O)N[C@@H](Cc1ccccc1)C(=O)O,10.6
21,CCc1nc(SCC(=O)NCC2CCCO2)c2c(=O)n(C)c(=O)n(C)c2n1 (stereo not drawn),11.9
22,O=C(Nc1ccc2nsnc2c1)N1CCCCC1,11.2
23,Cc1ccnc2nc(C(=O)Nc3cc(Cl)ccc3N3CCOCC3)nn12,10.7

row,Compound,"hERG current change (%, negative = inhibition) at 1uM [%]"
1,CC(C)NC(=O)COC(=O)c1ccc(O)cc1,6.17
2,O=C(O)c1cc(-c2ccco2)nc2ccccc12,17.1
3,COc1cccc(Nc2ncnc3nc[nH]c23)c1,3.68
4,CCOc1ccc(-n2c(SCC(=O)Nc3cc(C)on3)nc3c([nH]c4ccccc43)c2=O)cc1,8.2
5,CC(C)(C)NC(=O)NC(=O)COC(=O)Cn1c(C(F)(F)F)nc2ccccc21,18
6,O=C(c1ccc(N2CCCCC2)c([N+](=O)[O-])c1)N1CCC2(CC1)OCCO2,-7.03
7,CCOC(=O)CC(=O)CSc1ncnc2c1nnn2-c1ccccc1,14.2
8,CC(C)OC(=O)c1cccc(C(=O)O)n1,8.82
9,O=[N+]([O-])c1cccc(S(=O)(=O)Nc2ccc(-c3ccc(N4CCCC4)nn3)cc2)c1,6.92
10,CC[n+]1c(C)sc2c3ccsc3ccc21.[I-],8.43
11,FC(F)(F)c1nnc2ccc(NCn3nnc4ccccc43)nn12,12.1
12,CC(C)(C)C(=O)Nc1nnc(SCC(=O)NC2CCCCC2)s1,18.1
13,CC1CC(C)(C)NC(=S)N1CCCC(=O)NCCc1ccc(Cl)cc1 (stereo not drawn),3.92
14,CCCOc1ccc2c(=O)c(N3C(=O)c4ccccc4C3=O)c(C)oc2c1,-5.81
15,O=C(CC(c1ccccc1)c1ccccc1)N1CCN(c2ccccn2)CC1,-10.8
16,Cc1nc2ccccn2c1C(=O)N/N=C/c1cc(C)n(-c2ccc(Cl)cc2)c1C,-0.425
17,O=C(NCCN1CCOCC1)c1ccc(=O)n(Cc2ccc(Cl)cc2)c1,14.3
18,CCOC(=O)Cn1c(N)c(C(=O)OC)sc1=S,10.1
19,CCCCC(=O)Nc1ccc(C(N)=O)cc1,11.4
20,CC(=O)c1ccc(NC(=O)c2noc3c2CCC3)cc1,16.1
21,Br.COc1ccc(CNCc2ccc(F)cc2)c(OC)c1,-41.9
22,COc1cccc(NC(=O)c2ccccc2N(Cc2ccccc2)S(C)(=O)=O)c1,5.95
